# Measurements taken from PMC12136788.
# Some of the results follow.
# T1: UNK ZnF1-3 (human, UniProt Q9C0B0 31-174)
# T1 sequence: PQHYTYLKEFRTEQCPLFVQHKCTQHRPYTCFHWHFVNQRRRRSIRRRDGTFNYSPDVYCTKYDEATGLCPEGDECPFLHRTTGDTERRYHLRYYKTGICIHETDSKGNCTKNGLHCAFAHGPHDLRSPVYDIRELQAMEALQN
# B1: chr17:65740002:65740003:+_ENSG00000130935_ENST00000581375|hu_hu|hu_hu_hu_mus_False|48_108 (ssRNA)
# RNA: GGGAGUUCUACAGUCCGACGAUCAACCCGUUCUUGCUCCCUGGACGAACAGGAAGAUUCAUAUUAAAAAAAAUAUAUAUCCAUCAAGGAGAAUUGAGUGGCCACACCUUUACUCCCAGCACUUUGGGAGGUGGAUCUCUGAGUCAACAGAGGAUUGAGCAUCA
# B2: chr8:94190273:94190274:+_ENSMUSG00000055932_ENSMUST00000069718|mus_hu|FALSE|FALSE (ssRNA)
# RNA: GGGAGUUCUACAGUCCGACGAUCGUUUUGCUUCCAGAAGCUGACCUCUGAGUUCUGAAACGAUGUCUGUGAGGUCAAACGGCAGAGGCAUCGAAGCAUCAUCCUUUUCCCAGUAUGGCCGACAUUCUGGCUUCUGAUCAGCAGCAACAGAGGAUUGAGCAUCA
# B3: chr4:48381769:48381770:+_ENSG00000109171_ENST00000512093|hu_hu|FALSE|FALSE (ssRNA)
# RNA: GGGAGUUCUACAGUCCGACGAUCCUUAUAAUUGGAUCCAAUUGAAUCUUCAUCUAAUUCUGAAGCACUUAACUCACUAUCUAUAGAGGACUGAGGACUGAGUGGAGGAUUUCUGUCUGAGCUUUUCAAGUUACCUGAAUUUCCCAACAGAGGAUUGAGCAUCA
# B4: chr1:225611761:225611762:-_ENSG00000143815_ENST00000272163|hu_mus|hu_hu_hu_mus_True|18_108 (ssRNA)
# RNA: GGGAGUUCUACAGUCCGACGAUCCCAGGCCAUCGACCUCUGACCACUUCACCCUCAACAAACUUCCUACUUGGCAUUUUCUAAAAUUAGUCUGGCCGCGCUCCGGCGGGAACUCCAGACGGCUCCCGACAGUCACCAGCAGCCCAACAGAGGAUUGAGCAUCA
# B5: chr19:36179134:36179135:+_ENSMUSG00000024800_ENSMUST00000025714|mus_hu|FALSE|FALSE (ssRNA)
# RNA: GGGAGUUCUACAGUCCGACGAUCUUGUUUAUCACUUACACAAAGGAGAAAUAACCAGUCUUUCUCUCUUAAAGUACAUCUAAAUUCAUUAAGCUGGCAGCCUUUUAAAAAGAUGCUUCACUAGGUUUCGUUUGUUGUUUUAAUCAACAGAGGAUUGAGCAUCA
# B6: 138451259_138451379_2310_CDS_ENSG00000189184_ENST00000344876|human|control|control (ssRNA)
# RNA: GGGAGUUCUACAGUCCGACGAUCUUUGUCCUGAAUGAUAACUGACAGCUCCCAUUCUGUGUAGGGAACAGAAUCCAUGCUAACGUUGGUAUGGAUGUCACAUGAUCGUGGAUCAAUUAUGAAGAUAUUCUCCUCAUUACCUGCCAACAGAGGAUUGAGCAUCA
# B7: 31619300_31619420_303_3pUTR_ENSG00000169926_ENST00000307145|human|control|control (ssRNA)
# RNA: GGGAGUUCUACAGUCCGACGAUCGCCAUGCUGCGGGCUGGGGCCGGCGGCGGUGCUCUUGCUGCGAGUCGUCAGCCGCGCAUCCGCACCCACGGCCUCGGGAGAGCGGGCGGGGGGCGGGGGCGCGGCGCGCCCUCUCCUCGGCAACAGAGGAUUGAGCAUCA
# B8: chr8:104442852:104442853:+_ENSG00000164934_ENST00000297579|hu_hu|motif|central (ssRNA)
# RNA: GGGAGUUCUACAGUCCGACGAUCUCUCAUAUCUAAGAUAACCUUUUUCAAAGGAGUAGCUUGCCUCAUAUCGUACAGUACGGUAUUCCUGUCAGAUGCACAACUUCCCAAGAGAAAUGUCUCAAUUGGGUUAAAUUUAACACUCAACAGAGGAUUGAGCAUCA
# B9: 107480438_107480558_1777_3pUTR_ENSMUSG00000020721_ENSMUST00000106746|mouse|control|control (ssRNA)
# RNA: GGGAGUUCUACAGUCCGACGAUCUUUUGUUUUUUCUUCAAUAGUAGCUUCAUAAACCUUCUCUUUGGUUCCCUGGGACUGAACGAGCUUCUCUUUAGGGACUGGUAAUAAAUAAACAGCAUUGACCCUGGUCAUCACCAGCCGCAACAGAGGAUUGAGCAUCA
# B10: chr11:69466387:69466388:+_ENSG00000110092_ENST00000227507|hu_mus|motif|central (ssRNA)
# RNA: GGGAGUUCUACAGUCCGACGAUCUUAAAAACAUAUAAAAGAAUCAAAACUCCUUCUCAAGACUUCCCCUGUGUUAAUCCGGCUCUUAGAACAGACAAGCACAUUAAUAGAAAACUAGUUGAUUACUGGGGUACAGAAUUCUAUCAACAGAGGAUUGAGCAUCA
# B11: chr6:30681072:30681073:-_ENSG00000137337_ENST00000376406|hu_mus|FALSE|FALSE (ssRNA)
# RNA: GGGAGUUCUACAGUCCGACGAUCAGAGGACUCCUCUACUCCUGGUUGCUGACCUUGUUCUUCAUCAGUGUCACUGCCCAAACCAAAGGGUGAAGAUGGCCCGGGGACACUUGGGGCCGGAGAAGAGACCUCUUCAUCACUUUCCAACAGAGGAUUGAGCAUCA
# B12: chr13:55314627:55314628:+_ENSMUSG00000021488_ENSMUST00000099490|mus_mus|FALSE|FALSE (ssRNA)
# RNA: GGGAGUUCUACAGUCCGACGAUCCUCAGAAAAAUUGGAUUGACCAUUACCGAAAGGGCUGUCCUUGUCUUCGGAGGCAUCUAAAUUCACCGGAUUAGAAAAGGACAGCAGACAAUUUCUUCUAGAUAAUUCACAAGUCCGAUCCAACAGAGGAUUGAGCAUCA
# B13: 44566837_44567071_572_CDS_ENSMUSG00000032096_ENSMUST00000034607|mouse|control|control (ssRNA)
# RNA: GGGAGUUCUACAGUCCGACGAUCACGUUCUUGAGUCUCUCUGACUGCUCGGAAUACUUUCUCCUCGUGAGAGUCCAUUUCUGUAAAGGUUCUGAUCUGUGCCAGGUUAACAUUCUCCCGGUAUCCCAGGGCAACAAUUUCAUCCAACAGAGGAUUGAGCAUCA
# B14: 100944326_100944446_200_CDS_ENSMUSG00000001755_ENSMUST00000001806|mouse|control|control (ssRNA)
# RNA: GGGAGUUCUACAGUCCGACGAUCCAGGUGCACAUAGAGGGUGUGAUUCACCAGGCGGGACGCCGAGGUCAGGAUGGGAGGCAGGCGUGCGGCCAGGGUGGCCAGCGGCGUUGUCAGCACCAGGAGGCCUGAGCGGAACACGGCCAACAGAGGAUUGAGCAUCA
# B15: chr7:151048522:151048523:+_ENSG00000013374_ENST00000566856|hu_mus|hu_hu_hu_mus_True|78_78 (ssRNA)
# RNA: GGGAGUUCUACAGUCCGACGAUCCUGUUUCUUAUUUAUUACGAUCUUGAUGUAAUUUUCUUGAAGUCCGAAAGUUUCAGCUAUUUGACACCUCAGGUCUCUACCAGUGACAUGCAAGCGGGUCUCCAACAAGCUUUUCUUAUCCAACAGAGGAUUGAGCAUCA
# B16: chr14:89338683:89338684:+_ENSG00000165533_ENST00000346301|hu_hu|hu_hu_hu_mus_False|58_58 (ssRNA)
# RNA: GGGAGUUCUACAGUCCGACGAUCGUGGUUGUUGUGGACCAGGGCCAGCCUGAAGCAUUGGUGGGCCAAGUUUGUAUCUCCUAUUCCCACAGCUAUGUGCCCCAGGUUGUACCAGACAUCAGCUGCCUCUUCUUCAUUUUCAGCCAACAGAGGAUUGAGCAUCA
# B17: chr4:106720802:106720803:+_ENSMUSG00000061887_ENSMUST00000030367|mus_hu|FALSE|FALSE (ssRNA)
# RNA: GGGAGUUCUACAGUCCGACGAUCGUUUUGUCCUUCUUGUUUUAUGGAAUAAAAAGUUUGGCCUUUUUAUUGCAUGAAACUAAAAUUGGGAAAGGUAGGGGGCGUGGAUGGGGUGGGAGGGGGUUGAGGGGAGCAGGGAGAUGCCAACAGAGGAUUGAGCAUCA
# B18: chr5:108714581:108714582:-_ENSG00000198961_ENST00000361557|hu_mus|FALSE|FALSE (ssRNA)
# RNA: GGGAGUUCUACAGUCCGACGAUCUGACAGGUCAGCGUAGAUCUCUGCCUCUCCAUUUUCCAGCUCAAAGACUGCACGGCCUAACCCCUUCUGAUGUCUACCACCUUCCACAGCUUCAGCGCCAAGUUGAAGAGAGCCAUUCUCCAACAGAGGAUUGAGCAUCA
# B19: chr7:75932113:75932114:+_ENSG00000106211_ENST00000248553|hu_hu|hu_hu_hu_mus_False|1_58 (ssRNA)
# RNA: GGGAGUUCUACAGUCCGACGAUCCUGCGACCACUCAUCGGGCAACCGGGGCACCCCGAAAGCUUGAUCGAAGAGGCGGCUAUGCGGAGGGUACCAGUCCCGGAAUGGUUCCCAGCUCGGGCUCCGCAGCAGCGAGAGGACGCGCAACAGAGGAUUGAGCAUCA
# B20: chr3:87342203:87342204:+_ENSMUSG00000003382_ENSMUST00000170036|mus_mus|FALSE|FALSE (ssRNA)
# RNA: GGGAGUUCUACAGUCCGACGAUCCCGAGUGCCAUCCCUUGCCUCAGCAGAUAGGAAACCAUUUCUUCUUGCUGCUCUGAGCUACUAGAGCACACACGUGCACAGAGGCCGUUGGCUGGUGCCGCUUUCUCUCUACCCUAGUGCCAACAGAGGAUUGAGCAUCA
# B21: chr13:30959905:30959906:-_ENSMUSG00000021357_ENSMUST00000021785|mus_mus|motif|central (ssRNA)
# RNA: GGGAGUUCUACAGUCCGACGAUCAUGGAUGCUUCCAAACAAAUCAGGAGAAGAAACAUCAACAGAAAGAUGAGUAGUAUCGGUGUCUGCAUCAGGCUUGGUGCUCAGUUGUUCCAGGCAGUAUAUAAAAACCUGCAUGAUAUUCAACAGAGGAUUGAGCAUCA
# B22: 156046937_156047057_930_CDS_ENSG00000254726_ENST00000532414|human|control|control (ssRNA)
# RNA: GGGAGUUCUACAGUCCGACGAUCGGGCUUGCAGCCGGGCUGGUGCACCCGCCAGGCGUCGGAGUAGCGGCUAUCGAUUGCUGCGUCGGGGCUCCCCGCCAGGAAGUCGUUUUCAUUGUUGUACUCGAGGAUCUUGCCAGUGCGCAACAGAGGAUUGAGCAUCA
# Target: T1, UNK ZnF1-3
# Assay: nsRBNS (natural sequence RNA bind-n-seq); RBNS binding buffer (assumed for nsRBNS): 25 mM Tris pH 7.5, 150 mM KCl, 3 mM MgCl2, 0.01% Triton X-100, 500 ug/ml BSA, 20 U/ml SUPERase-In, 4 C; UNK is unkempt and MSI1 is Musashi-1; names of the RNAs are library labels; protein concentration not given here; high values mean tight binding
row,Binder,binding signal
1,B1,1.58 enrichment R
2,B2,0.847 enrichment R
3,B3,2.65 enrichment R
4,B4,1.37 enrichment R
5,B5,0.979 enrichment R
6,B6,0.39 enrichment R
7,B7,0 enrichment R
8,B8,0.814 enrichment R
9,B9,0.886 enrichment R
10,B10,2.28 enrichment R
11,B11,1.09 enrichment R
12,B12,1.47 enrichment R
13,B13,0.654 enrichment R
14,B14,2.19 enrichment R
15,B15,0.659 enrichment R
16,B16,0.611 enrichment R
17,B17,0.945 enrichment R
18,B18,1.09 enrichment R
19,B19,0.717 enrichment R
20,B20,0.889 enrichment R
21,B21,1.78 enrichment R
22,B22,1.47 enrichment R
